About 65 (0.1%) of roughly 45,000 compounds were called active. Calls follow the shape of the dose curve; as a rule, active = well fitted activation curve with a large enough effect; inconclusive = small, poorly fitted or top-dose-only effect; inactive = no such curve, though single readings can be large or run the other way. The list shows a part of the results.

This test addresses Galactocerebrosidase (Homo sapiens) (UniProt P54803). The test can be described thus: A Novel Cell-Based Assay to Identify Small Molecules for B -Galactocerebrosidase. Also: 0% is about no effect; nearly all actives have a fitted effect of over 65% in size. To be noted: 145M-Twi-hGALC-G270D cells, HMU-beta-Gal fluorescence, 48 h; series mostly up to 57.5 µM; activation: at the top concentration. The procedure, abridged: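 qHTS, 1536-well; 145M-Twi-hGALC-G270D cells (WT line also made) in DMEM/F12 + 10% FBS; compound incubation on live cells; HMU-β-gal 0.1 mM final, pH 5.2, NaTC; carbonate stop; fluorescence increase = enhanced residual activity.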
UniProt P54803, sequence (P54803 whole entry, looked up): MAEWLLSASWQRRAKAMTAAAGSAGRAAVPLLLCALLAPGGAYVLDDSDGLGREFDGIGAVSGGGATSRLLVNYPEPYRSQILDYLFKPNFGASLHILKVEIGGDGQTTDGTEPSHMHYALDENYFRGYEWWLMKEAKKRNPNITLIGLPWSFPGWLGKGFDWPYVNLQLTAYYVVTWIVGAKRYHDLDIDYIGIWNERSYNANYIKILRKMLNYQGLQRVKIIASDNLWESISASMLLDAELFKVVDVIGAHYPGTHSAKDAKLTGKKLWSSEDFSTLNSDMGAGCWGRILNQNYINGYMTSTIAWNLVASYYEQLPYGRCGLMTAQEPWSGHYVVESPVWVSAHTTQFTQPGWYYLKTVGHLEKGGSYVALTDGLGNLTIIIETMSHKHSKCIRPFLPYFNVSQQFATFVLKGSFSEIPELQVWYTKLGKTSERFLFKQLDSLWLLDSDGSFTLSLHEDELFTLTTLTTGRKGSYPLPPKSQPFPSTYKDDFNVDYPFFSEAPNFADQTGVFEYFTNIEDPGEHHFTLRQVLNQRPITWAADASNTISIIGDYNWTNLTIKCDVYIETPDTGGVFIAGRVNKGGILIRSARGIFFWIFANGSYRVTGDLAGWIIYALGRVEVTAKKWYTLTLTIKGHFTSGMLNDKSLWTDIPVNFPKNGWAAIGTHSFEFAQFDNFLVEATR
As to `COc1ccc(NC(=O)CN(c2cc(C)cc(C)c2)S(=O)(=O)c2c(C)noc2C)cc1Cl`, the “activation” value was inactive: -13.5%.
As for `Cc1ccc2nc3sc(C(=O)NCCCN(C)c4ccccc4)cc3cc2c1`, the “activation” value was inactive: -6.37%.
Take `Cc1ccc(CNC(=O)CN2C(=O)COc3ccc(S(=O)(=O)Nc4ccccc4)cc32)cc1`: the “activation” value was inactive: 0.706%.
In the case of `CC(C)(C)OC(=O)N1CCC(c2nnc(SCc3cccc(Cl)c3)o2)CC1`, the “activation” value is inactive: 11.9%.
On to `COc1ccc(-c2nc(SCC(=O)Nc3ccc4c(c3)OCCO4)c(-c3ccc(C)cc3)[nH]2)cc1OC`, for which the “activation” value was inactive: -12.8%.
Regarding `Cc1ccccc1Nc1c(-c2ccc(N3CCOCC3)cc2)nc2ccccn12`, the “activation” value is inactive: -15.8%.
`CC(N=C(NC#N)Nc1ccncc1)C(C)(C)C` (stereo unspecified): the “activation” value was inactive: -13.8%.
Take `CC(C)NC(=O)c1nn(-c2ccccc2F)nc1CO`: the “activation” value was inactive: -11.6%.
For the compound `COc1ccc(NC(=O)CSc2ccc3nc(-c4ccccc4)cn3n2)cc1OC`, the “activation” value was inactive: -7.09%.
On to `Cc1ccc(C(=O)NC2=NC(c3ccc(C)cc3)CC(=O)N2)cc1` (stereo unspecified), for which the “activation” value was inactive: -13.5%.
Regarding `CC(=O)OCC(=O)[C@@]1(OC(C)=O)[C@@H](C)C[C@H]2[C@@H]3C[C@H](F)C4=CC(=O)C=C[C@]4(C)[C@@]3(F)[C@@H](O)C[C@@]21C`, the “activation” value was inactive: -6.44%.
As for `Cc1cc(C)cc(NC(=O)CSc2nc(-c3ccccc3)c3cc(F)ccc3n2)c1`, the “activation” value is inactive: -12.9%.
Consider `Cc1ccc2c(c1)-c1ncc(C(=O)c3ccccc3O)cc1CO2`, for which the “activation” value was inactive: -1.77%.
As to `CCCCCOC(=O)CSc1ncnc2sc3c(c12)CCC(C)C3` (stereo unspecified), the “activation” value was inactive: -20.7%.
With `CC(=O)c1ccc(NC(=O)c2cc3sccc3n2Cc2ccc(F)cc2)cc1` the figure was inactive: -13.1%; with `Cc1cc(C)cc(NC(=O)c2cc(CN3CCCC3)on2)c1`, inactive: -16.6%.
With `CCCCOC(=O)CC(CC(=O)OCCCC)(OC(C)=O)C(=O)OCCCC` the figure was inactive: -9.32%; with `O=C(Cn1nc(C(F)(F)F)c2c1CCCC2)Nc1ccc(Br)cc1`, inactive: -11.1%.
With `COc1cccc(CNC(=O)COc2cc(=O)n(C)c3ccccc23)c1`, the “activation” value is inactive: -10.3%.
Regarding `Cc1ccc(-n2nnnc2CNC(=O)c2cc(C(F)(F)F)cc(C(F)(F)F)c2)cc1C`, the “activation” value was inactive: 6.94%.
With `O=C(Nc1cccc(C(F)(F)F)c1)c1cc(CN2CCOCC2)on1`, the “activation” value is inactive: -13.3%.
With `COc1ccc(-n2ncc3c(NC4CCCC4)ncnc32)cc1` the figure was inactive: -7.38%; with `COc1ccc(S(=O)(=O)Nc2ccc(-c3cn4c(C)csc4n3)cc2)cc1`, inactive: -7.91%; with `COc1ccccc1S(=O)(=O)Cc1ccc(C(=O)NCc2ccc(Cl)cc2)o1`, inactive: -9.14%.
`Cc1ccc(N2CCN(S(=O)(=O)c3cccc4ccccc34)CC2)cc1Cl`: the “activation” value was inactive: -10.1%.
Turning to `COC(=O)c1ccc(NC(=O)CCn2cnnn2)cc1`, the “activation” value is inactive: -8.66%.
In the case of `CCOc1ccccc1CNCc1cccn1-c1nnc(N2CCN(c3ccccc3)CC2)s1`, the “activation” value was inactive: -35.9%.
Next, `CCN(CCCNC(=O)c1nn(-c2ccc(OC)cc2)c(=O)c2c1c1ccccc1n2C)c1ccccc1`: inactive: -2.53%; `Cc1c(Cl)cccc1-n1ncc(C(=O)Nc2ccc(Br)cc2F)c1C1CCNCC1`: inactive: -13.6%; `CC(=O)c1c(C)oc2c1cc(NS(=O)(=O)c1ccc(Br)cc1)c1ccccc12`: inactive: -11.2%.
Consider `CCCCNC(=O)c1ccc2c(c1)ncn2-c1cc(OC)ccc1OC`, for which the “activation” value was inactive: -6%.
As for `CCCNc1ccc(-c2nc(-c3ccccn3)no2)cc1[N+](=O)[O-]`, the “activation” value was inactive: -8.81%.
Next, `O=C(Nc1ccccc1F)c1ccc2c(Cl)c3c(nc2c1)CCC3`: inactive: -13.8%; `COC(=O)c1ccc(NC(=O)c2nc(-c3ccc(Cl)cc3)n3c2CCCCC3)cc1`: inactive: -19.1%.
Next, `CCc1cccc(NC(=O)CCNS(=O)(=O)c2cccc3nonc23)c1`: inactive: -23.7%.
Turning to `COc1ccccc1NC(=O)C1=C(C)Nc2nnnn2C1c1ccc(C(F)(F)F)cc1` (stereo unspecified), the “activation” value is inactive: -7.82%.
Take `COc1cc(NC(=O)N2c3ccccc3Sc3ccccc32)cc(OC)c1`: the “activation” value is inactive: -6%.
On to `O=C(CSc1nccn1-c1ccc(Cl)cc1)Nc1ccc(Cl)c(Cl)c1`, for which the “activation” value was inactive: -12.6%.
On to `CCOC(=O)N1CCc2c(sc3c2c(=O)n(CCc2ccccc2)c(=O)n3CC(=O)Nc2ccc(C)cc2)C1`, for which the “activation” value was inactive: -3.42%.
In the case of `CC(C)(C)CC(=O)NCC(c1ccc2c(c1)OCO2)N1CCN(c2ccccc2)CC1` (stereo unspecified), the “activation” value is inactive: -6.54%.
With `CC(=O)c1ccc(NC(=O)c2cc(-c3ccc(C)s3)nc3ccccc23)cc1`, the “activation” value was inactive: -8.33%.
For the compound `CCC(C)NC(=O)Cn1c(=O)n(CCCCCC(=O)NCc2ccccc2Cl)c(=O)c2sccc21` (stereo unspecified), the “activation” value was inactive: 2.94%.
Regarding `O=C(NCc1cccc(Br)c1)c1cnn(-c2ccc(F)cc2)c1-n1cccc1`, the “activation” value is inactive: -43%.
Next, `Cc1cccc(N2CCN(C(=O)CN3C(=O)CSc4c3c(C)nn4-c3ccccc3)CC2)c1C`: inactive: -4.73%.
With `CN1CCc2c(sc(NC(=O)CSc3ccccc3)c2-c2nc3ccccc3s2)C1` the figure was inactive: -18.9%; with `CCCOC(=O)c1c(NC(=O)C(C)Sc2nc(-c3ccccc3)cc(C(F)(F)F)n2)sc(C(=O)N(C)C)c1C` (stereo unspecified), inactive: -2.11%.
On to `COc1ccccc1C(=O)NCC(c1cccnc1)N1CCc2ccccc2C1` (stereo unspecified), for which the “activation” value was inactive: -12.7%.
In the case of `CCOC(=O)c1ccc(NC(=O)CSc2ccc3ccccc3n2)cc1`, the “activation” value is inactive: -5.83%.
Consider `CCCN(CCC)CCCNC(=O)c1cc2c(-c3ccc(OC)c(OC)c3)nn(C)c2s1`, for which the “activation” value is inactive: -1.21%.
`CCOc1ccc(N2CC(NC(=O)c3cccs3)CC2=O)cc1` (stereo unspecified): the “activation” value was inactive: -9.62%.
Consider `CN(C)CCNC(=O)C1CCN(Cc2cc3ccccc3n2Cc2ccccc2)CC1`, for which the “activation” value is inactive: -1.93%.
In the case of `CCOc1ccc(S(=O)(=O)c2c(C(=O)c3ccc(CC)cc3)cnc3ccc(C)cc23)cc1`, the “activation” value was inactive: -25.2%.
Consider `CCc1ccc(NC(=O)[C@H](Cc2ccccc2)N2Cc3ccccc3C2=O)cc1`, for which the “activation” value is inactive: -20.3%.
With `COc1cc(NC(=O)CCc2c(C)nn(-c3ccc4nnc(C)n4n3)c2C)cc(OC)c1OC` the figure was inactive: -6.72%.
Take `Cc1ccc(S(=O)(=O)n2nc(-c3ccccc3)nc2NCc2ccc(Cl)cc2)cc1`: the “activation” value is inactive: 5.23%.
Regarding `O=C(CSc1nc2c([nH]c3ccccc32)c(=O)n1-c1ccccc1)N1CCc2ccccc21`, the “activation” value is inactive: -0.413%.
With `O=C1CC(c2nc(-c3ccc(Cl)cc3)no2)CN1c1ccc2c(c1)OCCO2` (stereo unspecified) the figure was inactive: -5.97%.
`CCC(=O)N1CCc2cc(S(=O)(=O)CCC(=O)N3CCN(c4ccc(Cl)cc4)CC3)ccc21`: the “activation” value is inactive: -10.1%.
For `COc1ccc(NC(=O)c2c(NCc3sccc3C)sc3c2CCCC3)c(OC)c1`, the “activation” value was inactive: -11.6%.
With `CCc1nn2c(=O)cc(COC(=O)CNC(=O)COc3ccc(C)cc3)nc2s1`, the “activation” value is inactive: 8.61%.
In the case of `CCCn1c(=O)sc2cc(NC(=O)c3ccc(OC)c(Br)c3)ccc21`, the “activation” value was inactive: -1.45%.
On to `CCCOc1ccc(CN(C(=O)Cc2coc3ccc(CC)cc23)C2CCS(=O)(=O)C2)cc1` (stereo unspecified), for which the “activation” value is inactive: -18.9%.
As for `CC(C)CC(NS(=O)(=O)c1ccc2c(c1)oc(=O)n2C)C(=O)NCc1ccccc1Cl` (stereo unspecified), the “activation” value was inactive: 1.66%.
Turning to `Cc1ccc(-n2nc(CO)c(C(=O)NC(C)CCCc3ccccc3)n2)cc1` (stereo unspecified), the “activation” value was inactive: -7.84%.
Turning to `COc1ccc(Nc2nc(N)nc(N)c2S(=O)(=O)c2ccccc2)cc1`, the “activation” value is inactive: -14.2%.
Next, `Cc1cn(C)c(CC(=O)N2CCN(c3cccc(Cl)c3)CC2)c1C(=O)O`: inactive: -10.4%; `Cc1ccc(NC(=O)CN2CCN(S(=O)(=O)c3ccc(C(C)C)cc3)CC2)cc1F`: inactive: -22.5%; `Cc1ccc(-n2cc(C(=O)Oc3cccc(C)c3)c3ccccc3c2=O)cc1`: inactive: -19%.
As for `COc1cccc(NC(=O)CSC2=Nc3ccccc3C3=NC(CCC(=O)NCCc4ccccc4)C(=O)N23)c1` (stereo unspecified), the “activation” value was inactive: -18.3%.
Regarding `Cc1cccc(NC(=O)c2ccc3nc(C(C)C)oc3c2)c1C`, the “activation” value was inactive: -17.9%.
With `CCCN(CCC)C(=O)Cn1c(=O)n(-c2ccc(CC)cc2)c(=O)c2ccc(C(=O)NCCc3ccccc3)cc21`, the “activation” value was inactive: -17.2%.
Consider `CCOC(=O)c1ccc(Nc2nc3ccc(C(=O)c4ccccc4)cc3n3c(C)nnc23)cc1`, for which the “activation” value was inactive: -6.11%.
Consider `O=c1c2ccccc2n(Cc2ccccc2Cl)c(=O)n1CCc1ccccc1`, for which the “activation” value was inactive: -0.145%.
`Nc1nc2c(ncn2CCC(CO)CO)c(=O)[nH]1`: the “activation” value was inactive: -12.1%.
As for `CC(C)(C)OC(=O)N1CCC(c2c(C(=O)NC3CCN(Cc4ccccc4)CC3)cnn2-c2ccc(F)cc2F)CC1`, the “activation” value was inactive: -8.97%.
On to `CCCOc1ccc(C(=O)OCCN(CC)CC)cc1N`, for which the “activation” value was inactive: -14.7%.
With `COc1ccc(CCNC(=O)c2ccc3c(c2)CCN3S(=O)(=O)c2ccc(C)cc2)cc1` the figure was inactive: -2.52%.
Take `COc1ccc(-c2cc(C(=O)NCCc3ccccc3)c3c(-c4ccccc4)[nH]nc3n2)cc1OC`: the “activation” value was inactive: -4.44%.
Next, `Cc1ccc(NC(=O)C2CCCN(S(=O)(=O)c3ccc4c(c3)oc(=O)n4C)C2)cc1Cl` (stereo unspecified): inactive: -7.36%; `CCOc1ccc(NC(=O)C(=O)c2cc(C)n(-c3cc(C)cc(C)c3)c2C)cc1`: inactive: -12.3%; `COc1cc(Cl)c(NC(=O)CCS(=O)(=O)c2ccc3c(c2)NC(=O)CO3)c(OC)c1`: inactive: 0.982%.
Next, `CCCCCOc1ccc(Cn2c(=O)oc3ccccc32)cc1`: inactive: -15.6%.
Regarding `CCOc1ccc(S(=O)(=O)Nc2cccc(-c3ccc(OCC)nn3)c2)cc1`, the “activation” value is inactive: -15.2%.
As for `Cc1ccc(/C=C/c2onc(C)c2S(=O)(=O)N2CCC(C(=O)Nc3cc(C)ccc3C)CC2)cc1`, the “activation” value is inactive: -3.15%.
With `COc1ccccc1CCNC(=O)C(=O)NCC(c1cccs1)S(=O)(=O)c1cccs1` (stereo unspecified), the “activation” value was inactive: -3.02%.
As to `O=C(Nc1ccc(S(=O)(=O)N2CCCCC2c2cccnc2)cc1)c1ccc(Br)cc1` (stereo unspecified), the “activation” value is inactive: -13.9%.
On to `Cc1cccc(NC(=O)COC(=O)CCCC2=NS(=O)(=O)c3ccccc3N2)c1`, for which the “activation” value is inactive: -11.2%.
As to `O=C(Nc1ccc(F)cc1C(F)(F)F)C1CCN(c2ncccn2)CC1`, the “activation” value is inactive: -7.07%.
Take `COc1ccc(S(=O)(=O)c2cn(C)c3ccc(C)cc3c2=O)cc1`: the “activation” value is inactive: 15.1%.
Consider `Cc1cc(C)c2oc(C(=O)Nc3ccc(S(=O)(=O)N4CCCCCC4)cc3)cc(=O)c2c1`, for which the “activation” value was inactive: 0.235%.
Consider `Cc1cccc(NC(=O)c2c(C)cc(C)nc2SCC(=O)c2ccccc2)c1`, for which the “activation” value is inactive: -18.9%.
As to `CC(C)c1ccc(NC(=O)c2ccc(F)c(S(=O)(=O)N3CCc4ccccc43)c2)cc1`, the “activation” value is inactive: -4.63%.
Next, `COc1ccccc1NC(=O)c1sc2nc(C)c(C(=O)Nc3ccc(C)cc3C)c(-c3ccco3)c2c1N`: inactive: -24.3%; `CCC(C)NC(=O)CSc1nc2n[nH]c(C)c2c(=N)n1-c1cc(Cl)ccc1C` (stereo unspecified): inactive: -3.7%.
Next, `O=C(C1CCCN(S(=O)(=O)c2cccc3nsnc23)C1)N1CCN(c2ccccc2F)CC1` (stereo unspecified): inactive: -8.07%; `CCOc1ccc(OCC)c(Nc2ccc3cc(S(=O)(=O)N4CCCC4)ccc3n2)c1`: inactive: -0.539%.
